# Measured values published in the supplement of paper PMC12217912.
# This is one part of the list. Sequences were assembled here from the parent chain. Inactive controls read about 0.05.
# B1: TEV protease; numbered along this chain (parent)
# chain: MGESLFKGPRDYNPISSSICHLTNESDGHTTSLYGIGFGPFIITNKHLFRRNNGTLVVQSLHGVFKVKDTTTLQQHLVDGRDMIIIRMPKDFPPFPQKLKFREPQREERICLVTTNFQTKSMSSMVSDTSCTFPSGDGIFWKHWIQTKDGQCGSPLVSTRDGFIVGIHSASNFTNTNNYFTSVPKNFMELLTNQEAQQWVSGWRLNADSVLWGGHKVFMVKPEEPFQPVKEATQL
# Variants of: B1
# Test: raw area under fraction-flipped curve 0-4 h after induction (AUC4h, not background-subtracted), DNA-recorder readout of cleavage of the substrate (dimensionless); higher = more cleavage of the substrate by the protease variant
# Conditions: temperature: 34 °C; time window: 0-4 h after rhamnose induction
# Protocol: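 In vivo DNA recorder in E. coli TOP10(DE3) ΔrhaA at 34 °C. Each TEVp single-site mutant (parent TEVp 0) is paired with a single-site variant of the 7-mer TEVs (canonical ENLYFQ|S). The substrate sits between flexible linkers in a Bxb1-sfGFP-TEVs-SsrA fusion, so cleavage stabilises Bxb1 and speeds flipping of a recombination array, read by NGS. The value is the raw area under the fraction-flipped curve over 0-4 h after rhamnose induction (AUC4h), with ≥20 reads per time point. It is not background-subtracted; inactive controls average about 0.047.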
# 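Further: Bxb1 expression induced with 0.2% (w/v) L-rhamnose at OD600 near 0.5, cultures sampled hourly, flipped fraction per protease–substrate barcode pair counted by paired-end Illumina sequencing.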
variant,measurement,value
MGESLFKGPRDYNPISSSICHLTNESDGHTTSLYGIGFGPFIITNKHLFRRNNGTLVVQSLHGVFKVKDTTTDQQHLVDGRDMIIIRMPKDFPPFPQKLKFREPQREERICLVTTNFQTKSMSSMVSDTSCTFPSGDGIFWKHWIQTKDGQCGSPLVSTRDGFIVGIHSASNFTNTNNYFTSVPKNFMELLTNQEAQQWVSGWRLNADSVLWGGHKVFMVKPEEPFQPVKEATQL [L73D],area with substrate CNLYFQS,0.0785
same,area with substrate FNLYFQS,0.0522
same,area with substrate GNLYFQS,0.0554
same,area with substrate HNLYFQS,0.0606
same,area with substrate KNLYFQS,0.0307
same,area with substrate LNLYFQS,0.0507
same,area with substrate SNLYFQS,0.0711
same,area with substrate TNLYFQS,0.0523
same,area with substrate VNLYFQS,0.0585
same,area with substrate WNLYFQS,0.0334
same,area with substrate YNLYFQS,0.05
MGESLFKGPRDYNPISSSICHLTNESDGHTTSLYGIGFGPFIITNKHLFRRNNGTLVVQSLHGVFKVKDTTTHQQHLVDGRDMIIIRMPKDFPPFPQKLKFREPQREERICLVTTNFQTKSMSSMVSDTSCTFPSGDGIFWKHWIQTKDGQCGSPLVSTRDGFIVGIHSASNFTNTNNYFTSVPKNFMELLTNQEAQQWVSGWRLNADSVLWGGHKVFMVKPEEPFQPVKEATQL [L73H],area with substrate CNLYFQS,0.0642
same,area with substrate GNLYFQS,0.0592
same,area with substrate MNLYFQS,0.0526
same,area with substrate PNLYFQS,0.0537
same,area with substrate SNLYFQS,0.0524
same,area with substrate TNLYFQS,0.0353
same,area with substrate WNLYFQS,0.0471
same,area with substrate YNLYFQS,0.054
MGESLFKGPRDYNPISSSICHLTNESDGHTTSLYGIGFGPFIITNKHLFRRNNGTLVVQSLHGVFKVKDTTTKQQHLVDGRDMIIIRMPKDFPPFPQKLKFREPQREERICLVTTNFQTKSMSSMVSDTSCTFPSGDGIFWKHWIQTKDGQCGSPLVSTRDGFIVGIHSASNFTNTNNYFTSVPKNFMELLTNQEAQQWVSGWRLNADSVLWGGHKVFMVKPEEPFQPVKEATQL [L73K],area with substrate CNLYFQS,0.0404
same,area with substrate FNLYFQS,0.0501
same,area with substrate GNLYFQS,0.0415
same,area with substrate MNLYFQS,0.0423
same,area with substrate NNLYFQS,0.0488
same,area with substrate QNLYFQS,0.0618
same,area with substrate RNLYFQS,0.0638
same,area with substrate WNLYFQS,0.0576
same,area with substrate YNLYFQS,0.0573
MGESLFKGPRDYNPISSSICHLTNESDGHTTSLYGIGFGPFIITNKHLFRRNNGTLVVQSLHGVFKVKDTTTNQQHLVDGRDMIIIRMPKDFPPFPQKLKFREPQREERICLVTTNFQTKSMSSMVSDTSCTFPSGDGIFWKHWIQTKDGQCGSPLVSTRDGFIVGIHSASNFTNTNNYFTSVPKNFMELLTNQEAQQWVSGWRLNADSVLWGGHKVFMVKPEEPFQPVKEATQL [L73N],area with substrate CNLYFQS,0.0445
same,area with substrate HNLYFQS,0.0547
same,area with substrate INLYFQS,0.0445
same,area with substrate KNLYFQS,0.0231
same,area with substrate LNLYFQS,0.0561
same,area with substrate MNLYFQS,0.0512
same,area with substrate NNLYFQS,0.0631
same,area with substrate PNLYFQS,0.0631
same,area with substrate TNLYFQS,0.0563
same,area with substrate WNLYFQS,0.0567
same,area with substrate YNLYFQS,0.0533
MGESLFKGPRDYNPISSSICHLTNESDGHTTSLYGIGFGPFIITNKHLFRRNNGTLVVQSLHGVFKVKDTTTLAQHLVDGRDMIIIRMPKDFPPFPQKLKFREPQREERICLVTTNFQTKSMSSMVSDTSCTFPSGDGIFWKHWIQTKDGQCGSPLVSTRDGFIVGIHSASNFTNTNNYFTSVPKNFMELLTNQEAQQWVSGWRLNADSVLWGGHKVFMVKPEEPFQPVKEATQL [Q74A],area with substrate CNLYFQS,0.0632
same,area with substrate FNLYFQS,0.0589
same,area with substrate HNLYFQS,0.0638
same,area with substrate KNLYFQS,0.0703
same,area with substrate LNLYFQS,0.0567
same,area with substrate MNLYFQS,0.0265
same,area with substrate QNLYFQS,0.0715
same,area with substrate VNLYFQS,0.0547
same,area with substrate WNLYFQS,0.0694
same,area with substrate YNLYFQS,0.0552
MGESLFKGPRDYNPISSSICHLTNESDGHTTSLYGIGFGPFIITNKHLFRRNNGTLVVQSLHGVFKVKDTTTLKQHLVDGRDMIIIRMPKDFPPFPQKLKFREPQREERICLVTTNFQTKSMSSMVSDTSCTFPSGDGIFWKHWIQTKDGQCGSPLVSTRDGFIVGIHSASNFTNTNNYFTSVPKNFMELLTNQEAQQWVSGWRLNADSVLWGGHKVFMVKPEEPFQPVKEATQL [Q74K],area with substrate CNLYFQS,0.0734
same,area with substrate GNLYFQS,0.0606
same,area with substrate KNLYFQS,0.068
same,area with substrate LNLYFQS,0.0592
same,area with substrate MNLYFQS,0.0523
same,area with substrate SNLYFQS,0.0698
same,area with substrate TNLYFQS,0.0441
same,area with substrate WNLYFQS,0.0578
same,area with substrate YNLYFQS,0.0528
MGESLFKGPRDYNPISSSICHLTNESDGHTTSLYGIGFGPFIITNKHLFRRNNGTLVVQSLHGVFKVKDTTTLMQHLVDGRDMIIIRMPKDFPPFPQKLKFREPQREERICLVTTNFQTKSMSSMVSDTSCTFPSGDGIFWKHWIQTKDGQCGSPLVSTRDGFIVGIHSASNFTNTNNYFTSVPKNFMELLTNQEAQQWVSGWRLNADSVLWGGHKVFMVKPEEPFQPVKEATQL [Q74M],area with substrate CNLYFQS,0.0597
same,area with substrate FNLYFQS,0.0639
same,area with substrate HNLYFQS,0.0583
same,area with substrate INLYFQS,0.0634
same,area with substrate KNLYFQS,0.0788
same,area with substrate LNLYFQS,0.0629
same,area with substrate MNLYFQS,0.0565
same,area with substrate NNLYFQS,0.0576
same,area with substrate QNLYFQS,0.0726
same,area with substrate SNLYFQS,0.0727
same,area with substrate TNLYFQS,0.0613
same,area with substrate VNLYFQS,0.0655
same,area with substrate WNLYFQS,0.0619
same,area with substrate YNLYFQS,0.0843
MGESLFKGPRDYNPISSSICHLTNESDGHTTSLYGIGFGPFIITNKHLFRRNNGTLVVQSLHGVFKVKDTTTLYQHLVDGRDMIIIRMPKDFPPFPQKLKFREPQREERICLVTTNFQTKSMSSMVSDTSCTFPSGDGIFWKHWIQTKDGQCGSPLVSTRDGFIVGIHSASNFTNTNNYFTSVPKNFMELLTNQEAQQWVSGWRLNADSVLWGGHKVFMVKPEEPFQPVKEATQL [Q74Y],area with substrate CNLYFQS,0.0748
same,area with substrate INLYFQS,0.0628
same,area with substrate MNLYFQS,0.0525
same,area with substrate NNLYFQS,0.0684
same,area with substrate PNLYFQS,0.0711
same,area with substrate SNLYFQS,0.0696
same,area with substrate VNLYFQS,0.0515
same,area with substrate WNLYFQS,0.0521
MGESLFKGPRDYNPISSSICHLTNESDGHTTSLYGIGFGPFIITNKHLFRRNNGTLVVQSLHGVFKVKDTTTLQIHLVDGRDMIIIRMPKDFPPFPQKLKFREPQREERICLVTTNFQTKSMSSMVSDTSCTFPSGDGIFWKHWIQTKDGQCGSPLVSTRDGFIVGIHSASNFTNTNNYFTSVPKNFMELLTNQEAQQWVSGWRLNADSVLWGGHKVFMVKPEEPFQPVKEATQL [Q75I],area with substrate CNLYFQS,0.0616
same,area with substrate HNLYFQS,0.0592
same,area with substrate INLYFQS,0.0587
same,area with substrate LNLYFQS,0.0573
same,area with substrate MNLYFQS,0.071
same,area with substrate PNLYFQS,0.0615
same,area with substrate TNLYFQS,0.0763
same,area with substrate WNLYFQS,0.0576
MGESLFKGPRDYNPISSSICHLTNESDGHTTSLYGIGFGPFIITNKHLFRRNNGTLVVQSLHGVFKVKDTTTLQVHLVDGRDMIIIRMPKDFPPFPQKLKFREPQREERICLVTTNFQTKSMSSMVSDTSCTFPSGDGIFWKHWIQTKDGQCGSPLVSTRDGFIVGIHSASNFTNTNNYFTSVPKNFMELLTNQEAQQWVSGWRLNADSVLWGGHKVFMVKPEEPFQPVKEATQL [Q75V],area with substrate CNLYFQS,0.0676
same,area with substrate GNLYFQS,0.0672
same,area with substrate HNLYFQS,0.0754
same,area with substrate INLYFQS,0.0558
same,area with substrate MNLYFQS,0.0668
same,area with substrate SNLYFQS,0.0057
same,area with substrate WNLYFQS,0.0611
